# Measured values taken from PubChem BioAssay AID463173 (ICCB-Longwood Screening Facility, Harvard Medical School, 2010).
# In all, about 52,000 compounds went through this assay and about 4,300 (8.3%) were called active. No stated cut-off is given here; in the data, active means survival mostly below about 52% (no sharp cut-off); inactive means mostly above about 56%. The list shows a part of the results.
# Test system: DeltatarO mutant
# Experiment: S. aureus survival, RN4220 and DeltatarO strains – OD600, teichoic acid synthesis inhibitors, primary screen (AID 463173)
# Details: S. aureus RN4220 wild type/DeltatarO growth, OD600, 18 h, hits give low values, screened at 18.75 µg/mL (by protocol)
row,SMILES,survival
1,Cc1csc2nc(COC(=O)c3ccccc3NC(=O)c3ccc(F)cc3)cc(=O)n12,inactive: 55%
2,COc1ccc(NC(=O)c2cc3c(=O)[nH]c4ccccc4c3n2C)cc1Cl,inactive: 81%
3,O=C(CN1CCOCC1)Nc1ccc(Cl)c(NC(=O)c2ccc(Cl)cc2)c1,inactive: 95%
4,NC(=O)CSc1nnc(-c2ccccc2)n1-c1ccccc1,inactive: 98%
5,CCCN(C(=O)CCc1nc(-c2ccccc2F)no1)c1ccc(CC)cc1,active: -7%
6,Cc1ccccc1NC(=O)c1sc2nc3c(cc2c1N)CCCC3,inactive: 64%
7,CCOc1cc2[nH]c(=O)n(Cc3ccc(C(=O)NCCN(CC)CC)cc3)c(=O)c2cc1OCC,inactive: 67%
8,Cc1ccc(C)c(N2CCN(C(=O)c3ccc(CS(=O)(=O)c4ccc(Br)cc4)o3)CC2)c1,inactive: 119%
9,COc1ccc(CC(=O)NCc2nc3cccnc3n2Cc2ccc(F)cc2)cc1OC,inactive: 102%
10,Cc1ccc(CNC(=O)c2c3c(nc4ccccc24)C(=O)N(C2CCCCC2)C3)cc1,inactive: 91%
11,CCCCn1c2ccc(F)cc2c2nnc(SCCN(CC)CC)nc21,inactive: 178%
12,COc1cccc(N2CCN(C3C(=O)c4ccccc4N3C(C)=O)CC2)c1 (configuration not stated),inactive: 95%
13,COc1cccc(C2C(C(=O)Nc3ccc(C)cc3C)=C(C)Nc3c(C(=O)Nc4cccc(C)c4)cnn32)c1OC (configuration not stated),inactive: 94%
14,CCOc1ccc(OCC)c(NC(=O)CN(C)S(=O)(=O)c2ccc3c(c2)CCCC(=O)N3)c1,inactive: 90%
15,CC(Sc1nnc(-c2ccccc2)n1N)C(=O)O (configuration not stated),inactive: 113%
16,Cc1cccc(OCC(=O)N(Cc2sccc2C)C2CCS(=O)(=O)C2)c1 (configuration not stated),inactive: 77%
17,COc1ccc(N2CCN(C(=O)c3ccc(-c4nc(COc5ccccc5)c(C)o4)cc3)CC2)cc1,inactive: 71%
18,COc1ccccc1/C=C/c1nc(C#N)c(N(C)C)o1,inactive: 86%
19,O=C(c1cc2ncc(Br)cn2n1)N1CCCCC1,inactive: 64%

row,SMILES,survival
1,Cc1c2cnn(CC(=O)Nc3cccc(C(F)(F)F)c3)c(=O)c2c(C)n1Cc1ccccc1Cl,inactive: 71%
2,O=C1CC(Sc2ncccc2C(=O)O)C(=O)N1 (configuration not stated),inactive: 95%
3,CCOC(=O)N1CCc2c(sc3c2c(=O)n(-c2ccc(CC)cc2)c(=O)n3CC(=O)c2ccc(F)cc2)C1,inactive: 80%
4,COc1cc(C(=O)Nc2ccc3nc(SCc4ccccc4)sc3c2)cc(OC)c1OC,inactive: 80%
5,Cc1ccc(C(=O)NCC(c2cccs2)S(=O)(=O)c2cccs2)cc1 (configuration not stated),inactive: 79%
6,CCC(Sc1nncn2c1cc1occc12)C(=O)Nc1ccc(C)c(Cl)c1 (configuration not stated),active: 36%
7,CCN(C(=O)CSc1nc2ccccc2n1Cc1cc(C)ccc1C)c1ccccc1,inactive: 81%
8,Cc1c2cnn(CC(=O)NC(C)C)c(=O)c2c(C)n1Cc1ccccc1Cl,inactive: 84%
9,CC(C)(C)OC(=O)N1CCC(c2c(C(=O)N3CCc4ccccc4C3)cnn2-c2ccc(F)cc2)CC1,inactive: 87%
10,Cc1ccccc1OCCn1c(CCNC(=O)C(C)(C)C)nc2ccccc21,inactive: 82%
11,CC1=C(c2ccc(C)c(C)c2)S(=O)(=O)N=C1N1CCC(C(=O)NCc2ccc(C)o2)CC1,inactive: 86%
12,CC(NC(=O)CCCn1c(=O)c2cccn2c2cccnc21)c1ccccc1 (configuration not stated),inactive: 93%
13,CCOc1cc(-n2cnnn2)c(OCC)cc1NC(=O)c1cc2cccc(OC)c2oc1=O,inactive: 81%
14,CCc1ccc(CNC(=O)c2ccc(-c3nc(CS(=O)(=O)c4ccccc4)c(C)o3)cc2)cc1,inactive: 54%
15,COc1cc2c(cc1OC)C(C)N(C(=O)CN1CCOCC1)CC2 (configuration not stated),inactive: 88%
16,Cc1coc2c(C)c3oc(=O)c(CCC(=O)NCCc4ccc(Cl)cc4)c(C)c3cc12,inactive: 58%
17,COc1ccc(N2CCN(C(=O)c3nc(SC)ncc3Cl)CC2)cc1,inactive: 78%
18,COC(=O)C1(C)NC(c2ccc(OC)cc2)C2C(=O)N(c3ccccc3)C(=O)C21 (configuration not stated),inactive: 80%
19,CC(C)OC(=O)CN1C(=O)C(C)(C)Oc2ccc(C(=O)Nc3ccccc3)cc21,inactive: 98%

row,SMILES,survival
1,Cc1cc(F)ccc1NCc1ccccc1-c1nnc(-c2ccccc2Cl)o1,inactive: 84%
2,O=C(NCC(c1cccnc1)N1CCc2ccccc21)c1cccc(C(F)(F)F)c1 (configuration not stated),active: 45%
3,CCCNC(=O)CSc1nc2nc(C)c(Cc3ccccc3Cl)c(C)n2n1,inactive: 60%
4,Cc1ccc(-c2noc(-c3nnn(CC(=O)Nc4cc(C)cc(C)c4)c3N)n2)cc1,inactive: 115%
5,O=C(CSc1nccn1Cc1ccc(F)cc1)Nc1ccc2c(c1)OCCO2,inactive: 67%
6,COc1ccc(CCCc2nnc(SCC(=O)Nc3ccc(C)cc3C)o2)cc1,inactive: 55%
7,CCN(CC)S(=O)(=O)c1cc(-c2onc(C)c2C)ccc1OC,inactive: 85%
8,CCN(CCCNC(=O)c1cc2c(=O)n(CC)c3ccccc3c2s1)c1ccccc1,active: 47%
9,COCCCNC(=O)c1c(NC(=O)Cc2coc3cc(C)cc(C)c23)sc2c1CCCC2,inactive: 72%
10,CCc1ccc(CNC(=O)CSc2cc(=O)n(C)c3ccc(Cl)cc23)cc1,active: 31%
11,CC(NC(=O)CCSCc1ccccc1F)c1ccccc1 (configuration not stated),inactive: 100%
12,O=C(c1ccc2c(c1)N(Cc1ccccc1F)C(=O)c1ccccc1S2(=O)=O)N1CCCC1,inactive: 92%
13,COc1ccc(-c2cc(-c3ccccc3)nc(SCC(=O)CC(=O)OC(C)C)c2C#N)cc1,inactive: 55%
14,CC(=O)N1CCC(N(C(=O)Nc2c(F)cccc2F)C(C)C)CC1,inactive: 72%
15,Cc1ccc(N(C)C(=O)c2cnc(N3CCOCC3)c3ccccc23)cc1C,inactive: 90%
16,COc1ccc(C(C(C#N)C#N)C2C(=O)N(Cc3ccccc3)N=C2C)cc1 (configuration not stated),inactive: 87%
17,O=C(NCc1cccc(Cl)c1)C1CCN(C(=O)c2sccc2-n2cccc2)CC1,inactive: 88%
18,CCc1ccc(C(=O)c2cn(CC(=O)Nc3ccc(OC)cc3OC)c3ccc(CC)cc3c2=O)cc1,inactive: 54%
19,O=C1c2ccccc2C(=O)N1CCCn1nnc(-c2ccc(N3CCOCC3)cc2)n1,inactive: 74%
